Among all 48,000 compounds or so, about 120 (0.25%) were called active. Roughly 4% stayed inconclusive and do not appear here. Calls follow the shape of the dose curve; as a rule, active = well fitted activation curve with a large enough effect; inconclusive = small, poorly fitted or top-dose-only effect, or another doubt; inactive = no such curve, though single readings can be large or run the other way. The list shows a part of the results.
Assay: Primary qHTS for Identification of Small Molecule Activators of Huntingtin-Antisense Promoter Activity; also: nearly all actives have a fitted effect of over 55% in size
Conditions: HEK293 HTT-AS promoter firefly luciferase reporter, 24 h; series mostly up to 57.5 µM; activity change, positive = activation: at the top concentration
Summary of the method: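 Luminescence was read after Dual-Glo reagent and a 10 min room-temperature incubation. Values were normalized to vehicle (0% activity) and zero RLU (-100% activity). Reporter HEK293 cells had been exposed to compounds (up to 57.5 uM final) for 24 h.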

Activity change, positive = activation, inactive:
O=C(CCS(=O)(=O)c1cc2c(cc1Cl)NC(=O)CO2)NCc1ccccc1 -8.18%
COc1ccc(C(=O)Nc2nc(-c3nnn(-c4cc(OC)ccc4OC)c3C)ns2)cc1 -21.8%
Cc1ccc(OCc2cc(=O)n3c(-c4ccccc4)csc3n2)cc1 -1.6%
O=C(Cn1nnc(-c2cccc(C(F)(F)F)c2)n1)NCc1ccc(F)cc1 -11.8%
CCc1ccc(CNC(=O)c2cc3cc4ccc(OC)cc4nc3o2)cc1 -6.28%
Cc1ccc(NC(=O)C(=O)NCC(c2ccc3c(c2)OCO3)N2CCN(C)CC2)cc1C (stereo not given) -11.3%
Cc1c(C(=O)Oc2ccc(Br)cc2)sc2ncn(Cc3ccccc3F)c(=O)c12 -2.95%
COc1ccc(-c2cc(C(=O)NCc3ccc(C)cc3)c3cc(C(C)C)ccc3n2)cc1 -2.34%
CCN(CC)S(=O)(=O)c1ccc2c(c1)c(=O)c(C(=O)N1CCN(c3ccccc3OC)CC1)cn2C -3.78%
CC(C)CCNC(=O)Cn1cc(S(=O)(=O)Cc2ccc(F)cc2)c2ccccc21 -36.4%
COc1cc(NC(=O)Nc2c[nH]c(=O)[nH]c2=O)cc(OC)c1OC -4.87%
CC(=O)OCC(CCn1cnc2cnc(N)nc21)COC(C)=O
COc1ccc(CCNC(=O)c2cc3c(=O)n4ccccc4nc3n2C)cc1 -0.473%
COc1ccc(NC(=O)Cn2cc(S(=O)(=O)c3ccccc3)c(=O)c3cc(C)ccc32)cc1Cl -5.12%
CCc1ccc(NC(=O)CSC2=Nc3ccccc3C3=NC(CC(=O)NCc4cccs4)C(=O)N23)cc1 (stereo not given) -31.8%
COc1cccc(N2CCN(C(=O)c3ccc4c(Cl)c5c(nc4c3)CCCC5)CC2)c1 -20%
C[C@H](CN1CCCC1)C(=O)c1ccc(C(F)(F)F)cc1 -10.2%
CCC(=O)N1CCc2cc(Br)cc(S(=O)(=O)N3CCC(C(=O)Nc4cccc(C)c4)CC3)c21 -27.9%
CCC(Cn1nnc2ccccc2c1=O)NC(=O)Nc1cc(OC)cc(OC)c1 (stereo not given) -9.4%
Cc1cc2c(cc3c(SCc4cccc(Cl)c4)nnc(C)n32)o1 11.5%
CCc1cccc(C)c1NC(=O)c1cc2ccccc2o1 -19.1%
O=C(NCc1ccccc1)c1ccc(CSc2nc3cccnc3n2Cc2ccccc2)cc1 -34%
Cn1cc(S(=O)(=O)c2ccccc2)c(=O)c2cc(F)c(N3CCCC3)cc21 -13.5%
COc1cccc(NC(=O)Cn2nc(-c3ccncc3)ccc2=O)c1 -7.04% [at 11.5 µM, percent change from vehicle, -100% = no light]
CNC(=O)C1CCC(Cn2c(=O)c3sccc3n(CC(=O)Nc3cc(C)cc(C)c3)c2=O)CC1 (stereo not given) -8.29%
O=C(c1c[nH]c2ccc(S(=O)(=O)Nc3ccccc3F)cc2c1=O)N1CCCCCC1 -20.9%
CC(C)c1ccc(C(=O)CC2(O)C(=O)N(CCc3ccccc3)c3ccc(Cl)cc32)cc1 (stereo not given) -28.6%
CCOc1ccc(NC(=O)C(=O)NCCc2sc(-c3ccc(C)cc3)nc2C)cc1 0.203%
COc1ccc(OC)c(NC(=O)C2CCN(S(=O)(=O)c3c(C)noc3/C=C/c3ccc(C)cc3)CC2)c1 -9.46%
CC1CCCCN1CCCNC(=O)c1sc2ncccc2c1-n1cccc1 (stereo not given) 10.9%
Cc1ccc(C(=O)Nc2cc(-c3nc4cc(Cl)ccc4o3)ccc2C)c(C)c1 20.7%
O=S(=O)(NCc1csc(-c2ccccc2)n1)c1ccccc1 -7.38%
COc1ccc(Cn2c(CNS(=O)(=O)c3ccc(Cl)s3)nc3cccnc32)cc1 -22%
Cc1cccc(Cn2c(CN3CCC(C(=O)NCc4ccccc4Cl)CC3)cc3ccccc32)c1 -12.7%
CCCN1C(=O)c2[nH]nc(-c3ccc(OC)cc3)c2C1c1ccccn1 (stereo not given) -17.5%
COC(=O)c1sc(N2C(=O)c3oc4cc(C)c(C)cc4c(=O)c3C2c2ccccc2F)nc1C (stereo not given) -19.5%
C=CC(=O)Nc1cccc(Oc2nc(Nc3ccc(N4CCN(C)CC4)cc3OC)ncc2Cl)c1 -32%
CCOCCCNC(=O)C1CCN(c2nc3ccc(Cl)cc3[nH]2)CC1 8.13%
COc1ccc(CN2CCc3nc(N4CCN(c5ccc(F)cc5)CC4)ncc3C2)c(OC)c1OC -57%
O=C(c1cnn(-c2ccc(F)cc2)c1-n1cccc1)N1CCN(c2cccc(Cl)c2)CC1 -5.85%
O=c1c2cccnc2n(Cc2ccc(Cl)cc2)c(=O)n1Cc1ccc(F)cc1 0.212%
CNC(=O)c1cccc(-n2c(C)nc3cccnc32)c1C 8.01%
CCCSc1nnc(NC(=O)Cc2coc3cc(C)ccc23)s1 -24.7%
CC(=O)c1ccc(NC(=O)CSc2nc3c(=O)n(C)c(=O)n(C)c3n2C)cc1 25.1%
CC(=O)Nc1ccc(S(=O)(=O)N2CCN(c3ccc(C)c(C)c3)CC2)cc1 -30%
Cc1cc(OCC(=O)Nc2ccc(C(=O)OC3CCCCC3)cc2)ccc1Cl -6.94%
O=C(Nc1cn[nH]c1-c1nc2ccc(CN3CCOCC3)cc2[nH]1)NC1CC1 -34.5%
COc1ccc(C(=O)NCC(=O)OCc2cc(=O)n3nc(C4CCCCC4)sc3n2)cc1 3.91%
Cc1c(N(C)CS(=O)(=O)O)c(=O)n(-c2ccccc2)n1C -6.44%
Cc1ccccc1-c1nc(CS(=O)(=O)CC(=O)NCCCN2CCN(C)CC2)c(C)o1 -22.4%
COc1ccc(NC(=O)CSc2nncn3c2cc2occc23)c(OC)c1 -13.1%
COc1ccc(-n2nnc(-c3nc(-c4ccc5c(c4)OCO5)no3)c2C)cc1Cl -1.3%
O=C(Cn1c(=O)n(Cc2ccco2)c(=O)c2ccccc21)Nc1cccc(F)c1 -21.9%
COc1ccc(NC(=O)Cn2c(=O)n(Cc3ccco3)c(=O)c3sc4ccccc4c32)cc1OC -14.7%
CCOc1cc(C#N)c(NC(=O)c2ccc(OC)c(S(=O)(=O)N3CCCCC3)c2)cc1OCC -24.1%
CC(=O)c1ccc(NC(=O)c2cnc(N3CCCC3)nc2C)cc1 -0.981%
Cc1ccc(-n2c(-c3ccc(Br)cc3)nc3c(cnn3-c3ccccc3)c2=O)cc1 -14.3%
CCc1ccccc1NC(=O)Cn1c(=O)n(-c2ccccc2)c(=O)c2oc3ccccc3c21 -4.45%
Cc1c2cnn(-c3ccccc3)c(=O)c2c(C)n1CC(=O)Nc1ccccc1Br -13%
COc1ccccc1N1CCN(S(=O)(=O)c2ccc(-c3coc(C)n3)cc2)CC1 -13.7%
O=C(C1CCCCC1)N(Cc1cccnc1)c1nc2ccc(Cl)cc2s1 -2.9%
O=C(Nc1nnc(S(=O)(=O)N2CCCc3ccccc32)s1)c1ccc(Cl)cc1 -56.6%
CCN(C(=O)CSc1nc(-c2ccc(C(C)C)cc2)no1)c1ccccc1 -21.9%
COc1ccc2c(c1)CC(C(=O)Nc1ccc(Br)c(C)c1)CO2 (stereo not given) -19.2%
Cc1ccc2c(CNCCc3ccco3)c(C(=O)O)n(Cc3ccc(F)cc3)c2c1 -21.3%
CCOc1ccc(CN(CCc2ccc3c(c2)OCO3)Cc2cc(OC)cc(OC)c2)cc1 -14.5%
COc1ccc(NC(=O)CCCc2nnc3n(C(C)C)c(=O)c4sccc4n23)cc1Cl 1.57%
Cc1cc(=O)[nH]c2nnc(SCc3cccc(C(F)(F)F)c3)n12 -13.4%
CCOc1ccc(NC(=O)Cn2cc(C(=O)C3CC3)c3ccccc32)cc1 -17.7%
CCN1CCC(N(Cc2ccc(F)cc2)C(=O)Nc2ccc(C)c(F)c2)CC1 -7.96%
CC(C)c1ccc(NC(=O)Cn2nnc(C(=O)NCCc3ccccc3)c2N)cc1 -15.3%
COc1cc(Cl)c(NC(=O)CN2C(=O)c3cccnc3Sc3ccccc32)c(OC)c1 -26.3%
COc1ccc(NC(=O)C(Cc2ccccc2)NS(=O)(=O)c2ccc3c(c2)oc(=O)n3C)c(OC)c1 (stereo not given) -12%
Cc1nc(N2CCOCC2)c2c(C(=O)N3CCN(c4cccc(C(F)(F)F)c4)CC3)c(C)oc2n1 -16.4%
Cc1nc2ccc(S(=O)(=O)NCC(=O)NCc3ccc(Cl)cc3)cc2s1 -17.7%
COc1ccccc1N1CCN(c2ncc3c(n2)CCN(Cc2ccccc2C)C3)CC1 -6.92%
Cc1ccc(OCC(=O)OCc2cc(=O)n3ccsc3n2)cc1C 11.1%
Cc1nn(-c2ccccc2)c(-n2cccc2)c1C(=O)NCCCN1CCN(c2ccccc2F)CC1 -33.1%
COc1ccc(OC(=O)c2cc(-c3ccc4c(c3)OCCO4)on2)cc1 3.91%
CCOc1ccc(NC(=O)Cn2c(=O)nc(-c3ccccc3)c3ccccc32)cc1 5.3%
Cc1ccc(C)c(NC(=O)CSc2cn(CC(=O)N3CCCCC3)c3ccccc23)c1 -22.1%
CCOC(=O)c1ccc(NC(=O)CCc2c(C)nc3cc(-c4ccc(OC)cc4OC)nn3c2C)cc1 -14.7%
CC(C)Oc1ccc(C(=O)N2CCC(c3nc4ccccc4s3)CC2)cc1 -7.7%
COc1cc(C(=O)Nc2ccc(-c3nc4cc(C)c(C)cc4o3)cc2)cc(OC)c1OC 24.8%
CC1=C(C(=O)NCc2cccc(Cl)c2)C2(CCCCCC2)OC1=O -34%
CCOC(=O)c1c(C)oc2nc(C)nc(NCCc3ccc(OCC)cc3)c12 -32%
CCC(C)NC(=O)Cn1c(=O)n(-c2cc(OC)cc(OC)c2)c(=O)c2ccccc21 (stereo not given) -23.6%
CC(=O)Nc1ccc(S(=O)(=O)N2CCC(n3c(C)nc4cccnc43)CC2)cc1 -20.5%
O=C(Cn1c(=O)n(Cc2ccco2)c(=O)c2sc3ccccc3c21)Nc1ccc(F)cc1F -11.5%
COc1ccc(C(=O)N(Cc2ccco2)Cc2ccccc2F)cc1Cl -36.8%
COc1ccc(-c2cc(C(F)(F)F)c(C#N)c(SCC(=O)Nc3cccc(C)c3)n2)cc1 -6.79%
O=C(NCC(c1ccco1)S(=O)(=O)c1ccc(Cl)cc1)c1ccc(C(F)(F)F)cc1 (stereo not given) -23.5%
Cc1ccc(Cn2c(SCc3ccc(C(=O)O)cc3)nc3cccnc32)cc1 9.14%
COc1cccc(CC(=O)Nc2c(C(=O)N3CCN(c4ccccc4)CC3)oc3ccccc23)c1 -34.2%
O=c1[nH]c(=O)n(C2CCCO2)cc1F (stereo not given) -0.821% [at 116 µM, percent change from vehicle, -100% = no light]

From PubChem BioAssay AID1508624 (National Center for Advancing Translational Sciences (NCATS), 2021)
